# Assay results: IntAct's records for PubMed 30126976
# B1: Glutamate receptor ionotropic, NMDA 2B (Homo sapiens), Q13224 (parent)
# chain: MKPRAECCSPKFWLVLAVLAVSGSRARSQKSPPSIGIAVILVGTSDEVAIKDAHEKDDFHHLSVVPRVELVAMNETDPKSIITRICDLMSDRKIQGVVFADDTDQEAIAQILDFISAQTLTPILGIHGGSSMIMADKDESSMFFQFGPSIEQQASVMLNIMEEYDWYIFSIVTTYFPGYQDFVNKIRSTIENSFVGWELEEVLLLDMSLDDGDSKIQNQLKKLQSPIILLYCTKEEATYIFEVANSVGLTGYGYTWIVPSLVAGDTDTVPAEFPTGLISVSYDEWDYGLPARVRDGIAIITTAASDMLSEHSFIPEPKSSCYNTHEKRIYQSNMLNRYLINVTFEGRNLSFSEDGYQMHPKLVIILLNKERKWERVGKWKDKSLQMKYYVWPRMCPETEEQEDDHLSIVTLEEAPFVIVESVDPLSGTCMRNTVPCQKRIVTENKTDEEPGYIKKCCKGFCIDILKKISKSVKFTYDLYLVTNGKHGKKINGTWNGMIGEVVMKRAYMAVGSLTINEERSEVVDFSVPFIETGISVMVSRSNGTVSPSAFLEPFSADVWVMMFVMLLIVSAVAVFVFEYFSPVGYNRCLADGREPGGPSFTIGKAIWLLWGLVFNNSVPVQNPKGTTSKIMVSVWAFFAVIFLASYTANLAAFMIQEEYVDQVSGLSDKKFQRPNDFSPPFRFGTVPNGSTERNIRNNYAEMHAYMGKFNQRGVDDALLSLKTGKLDAFIYDAAVLNYMAGRDEGCKLVTIGSGKVFASTGYGIAIQKDSGWKRQVDLAILQLFGDGEMEELEALWLTGICHNEKNEVMSSQLDIDNMAGVFYMLGAAMALSLITFICEHLFYWQFRHCFMGVCSGKPGMVFSISRGIYSCIHGVAIEERQSVMNSPTATMNNTHSNILRLLRTAKNMANLSGVNGSPQSALDFIRRESSVYDISEHRRSFTHSDCKSYNNPPCEENLFSDYISEVERTFGNLQLKDSNVYQDHYHHHHRPHSIGSASSIDGLYDCDNPPFTTQSRSISKKPLDIGLPSSKHSQLSDLYGKFSFKSDRYSGHDDLIRSDVSDISTHTVTYGNIEGNAAKRRKQQYKDSLKKRPASAKSRREFDEIELAYRRRPPRSPDHKRYFRDKEGLRDFYLDQFRTKENSPHWEHVDLTDIYKERSDDFKRDSVSGGGPCTNRSHIKHGTGDKHGVVSGVPAPWEKNLTNVEWEDRSGGNFCRSCPSKLHNYSTTVTGQNSGRQACIRCEACKKAGNLYDISEDNSLQELDQPAAPVAVTSNASTTKYPQSPTNSKAQKKNRNKLRRQHSYDTFVDLQKEEAALAPRSVSLKDKGRFMDGSPYAHMFEMSAGESTFANNKSSVPTAGHHHHNNPGGGYMLSKSLYPDRVTQNPFIPTFGDDQCLLHGSKSYFFRQPTVAGASKARPDFRALVTNKPVVSALHGAVPARFQKDICIGNQSNPCVPNNKNPRAFNGSSNGHVYEKLSSIESDV
# Variants of: B1
# Conditions: with scrib_human SCRIB
row,effect of a mutation on the interaction,Variant
1,decreasing interaction strength,S1479E
